Our source for the AUC and IC50 values is the supplement of paper PMC4967469.

Lines with a small IC50 respond at low doses; a fit beyond the top or the lowest dose is shown as a bound at that dose. AUC sums up the same curve from the lowest dose to the 256-fold higher top dose; it is 1 without any effect and falls as sensitivity rises. For part of these data: An inferred top dose is not printed in the source and was worked back from the curve model. For part of these data: Where an entry number is given, a second screen of the drug exists; the two often differ.

Compound in one assay: Cc1cc(N2CCOCC2)cc2[nH]c(-c3c(NC[C@@H](O)c4cccc(Cl)c4)cc[nH]c3=O)nc12 [BMS-536924]
The experiment in a line: Viability of human cancer cell lines after 72 h of drug (GDSC screen). To be noted: top dose 5.12 µM; screen: GDSC drug entry 62. As to the method:
(§1)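 Human cancer cell lines in 384-well plates, medium with 10% serum, drug for 72 h over a 256-fold dose range (nine 2-fold or five 4-fold steps up to the top dose). Adherent lines were fixed and stained with the nucleic acid dye Syto60, suspension lines read with resazurin; signal relative to control wells, capped at 0 and 100%. One two-parameter sigmoid per drug and line, fitted in a mixed model over all curves with the slope shared within a line.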
As usually defined, the IC50 is the concentration that inhibits the measured activity by half. As for SR (lymphoid neoplasm, suspension), the AUC turned out to be 0.801 and the IC50 was 2.21 µM.

Consider SW684 (fibrosarcoma, adherent), for which the AUC was determined as 0.969 and the IC50 is over 5.12 µM.

Consider TE-1 (oesophagus, adherent), for which the AUC amounted to 0.62.

Turning to TE-5 (oesophagus, adherent), the AUC was determined as 0.914 and the IC50 is over 5.12 µM.

Regarding TE-8 (oesophagus, adherent), the AUC worked out at 0.576 and the IC50 stood at 0.524 µM.

As for TE-9 (oesophagus, adherent), the AUC was determined as 0.793 and the IC50 stood at 2.45 µM.

With TE-12 (oesophagus, suspension), the AUC is 0.429 and the IC50 turned out to be 0.196 µM.

With TGBC1TKB (biliary tract, adherent), the AUC turned out to be 0.791 and the IC50 was determined as 2.28 µM.

For TGW (neuroblastoma, adherent), the AUC turned out to be 0.647 and the half-maximal inhibitory concentration (IC50) was 0.764 µM.

In the case of TK10 (kidney, adherent), the AUC was found to be 0.745 and the half-inhibitory concentration (IC50) was determined as 1.9 µM.

Compound in another assay: Cc1ccc(-n2nc(C(C)(C)C)cc2NC(=O)Nc2ccc(OCCN3CCOCC3)c3ccccc23)cc1 [BIRB 0796]
The assay is described as above. To be noted: top dose 10 µM; top dose inferred. The protocol: as §1
Consider SH-4 (melanoma, adherent), for which the AUC amounted to 0.968 and the half-maximal inhibitory concentration (IC50) was over 10 µM.

On to SIMA (neuroblastoma, adherent), for which the AUC came out at 0.895 and the IC50 is over 10 µM.

As to SJSA-1 (bone, adherent), the AUC came out at 0.896 and the IC50 is over 10 µM.

For SK-LMS-1 (soft tissue, adherent), the AUC came out at 0.818 and the IC50 came to 5.28 µM.

With SK-MEL-1 (melanoma, suspension), the AUC was 0.993 and the 50% inhibitory concentration (IC50) is over 10 µM.

On to SK-MEL-2 (melanoma, adherent), for which the AUC stood at 0.901 and the 50% inhibitory concentration (IC50) was over 10 µM.

Consider SK-MM-2 (myeloma, suspension), for which the AUC stood at 0.987 and the IC50 was over 10 µM.

On to SK-PN-DW (Ewing sarcoma, adherent), for which the AUC turned out to be 0.979 and the IC50 is over 10 µM.

With SLVL (B-cell lymphoma, suspension), the AUC amounted to 0.981 and the IC50 is over 10 µM.

Take SNB75 (glioma, adherent): the AUC turned out to be 0.967 and the IC50 is over 10 µM.

As for SR (lymphoid neoplasm, suspension), the AUC worked out at 0.987 and the IC50 is over 10 µM.

With SW684 (fibrosarcoma, adherent), the AUC was 0.981 and the IC50 is over 10 µM.

As for TE-1 (oesophagus, adherent), the AUC was found to be 0.982 and the IC50 is over 10 µM.

On to TE-5 (oesophagus, adherent), for which the AUC is 0.982 and the IC50 is over 10 µM.

As for TE-8 (oesophagus, adherent), the AUC is 0.981 and the concentration for half-maximal inhibition (IC50) was over 10 µM.

Turning to TE-9 (oesophagus, adherent), the AUC is 0.966 and the 50% inhibitory concentration (IC50) is over 10 µM.

For the cell line TE-12 (oesophagus, suspension), the AUC was found to be 0.961 and the IC50 is over 10 µM.

On to TGBC1TKB (biliary tract, adherent), for which the AUC was 0.986 and the IC50 was over 10 µM.

Consider TGW (neuroblastoma, adherent), for which the AUC was 0.991 and the half-inhibitory concentration (IC50) was over 10 µM.

As to TK10 (kidney, adherent), the AUC turned out to be 0.981 and the IC50 was over 10 µM.

Compound in a further assay: Cc1cccc(-c2[nH]c(C(C)(C)C)nc2-c2ccc3nccnc3c2)n1 [SB-525334]
The description is as above. To be noted: top dose 20 µM; top dose inferred. As to the method:
as §1
Turning to SH-4 (melanoma, adherent), the AUC amounted to 0.895 and the IC50 is over 20 µM.

With SIMA (neuroblastoma, adherent), the AUC was found to be 0.841 and the IC50 was 16.6 µM.

Regarding SJSA-1 (bone, adherent), the AUC is 0.955 and the half-maximal inhibitory concentration (IC50) is over 20 µM.

As to SK-LMS-1 (soft tissue, adherent), the AUC amounted to 0.894 and the IC50 was over 20 µM.

On to SK-MEL-1 (melanoma, suspension), for which the AUC came to 0.982 and the 50% inhibitory concentration (IC50) was over 20 µM.

Consider SK-MEL-2 (melanoma, adherent), for which the AUC was found to be 0.985 and the concentration for half-maximal inhibition (IC50) is over 20 µM.

SK-MM-2 (myeloma, suspension): the AUC turned out to be 0.744 and the IC50 is 6.47 µM.

As to SK-PN-DW (Ewing sarcoma, adherent), the AUC is 0.931 and the IC50 is over 20 µM.

Consider SLVL (B-cell lymphoma, suspension), for which the AUC amounted to 0.874 and the IC50 is over 20 µM.

For SNB75 (glioma, adherent), the AUC came to 0.975 and the IC50 was over 20 µM.

As to SR (lymphoid neoplasm, suspension), the AUC worked out at 0.973 and the IC50 was over 20 µM.

As to SW684 (fibrosarcoma, adherent), the AUC worked out at 0.983 and the IC50 was over 20 µM.

TE-1 (oesophagus, adherent): the AUC is 0.978 and the IC50 is over 20 µM.

Take TE-5 (oesophagus, adherent): the AUC stood at 0.964 and the IC50 is over 20 µM.

With TE-8 (oesophagus, adherent), the AUC worked out at 0.948 and the IC50 is over 20 µM.

With TE-9 (oesophagus, adherent), the AUC came out at 0.987 and the IC50 is over 20 µM.

Turning to TE-12 (oesophagus, suspension), the AUC stood at 0.967 and the IC50 was over 20 µM.

On to TGBC1TKB (biliary tract, adherent), for which the AUC stood at 0.963 and the IC50 is over 20 µM.

Consider TGW (neuroblastoma, adherent), for which the AUC was 0.833 and the IC50 stood at 10.4 µM.

On to TK10 (kidney, adherent), for which the AUC turned out to be 0.965 and the IC50 was over 20 µM.

Compound in another assay: NC(=O)c1ccc(N(C(N)=O)c2c(F)cccc2F)nc1-c1ccc(F)cc1F [VX-702]
Described as above. To be noted: top dose 2 µM; top dose inferred. The protocol:
as §1
In the case of SH-4 (melanoma, adherent), the AUC was determined as 0.968 and the IC50 is over 2 µM.

As for SIMA (neuroblastoma, adherent), the AUC turned out to be 0.985 and the IC50 was over 2 µM.

For the cell line SJSA-1 (bone, adherent), the AUC worked out at 0.956 and the IC50 was over 2 µM.

With SK-LMS-1 (soft tissue, adherent), the AUC amounted to 0.961 and the IC50 is over 2 µM.

Regarding SK-MEL-1 (melanoma, suspension), the AUC was found to be 0.993 and the half-inhibitory concentration (IC50) is over 2 µM.

As for SK-MEL-2 (melanoma, adherent), the AUC was found to be 0.984 and the IC50 is over 2 µM.

Regarding SK-MM-2 (myeloma, suspension), the AUC turned out to be 0.986 and the IC50 is over 2 µM.

As to SK-PN-DW (Ewing sarcoma, adherent), the AUC amounted to 0.9 and the IC50 is over 2 µM.

For the cell line SLVL (B-cell lymphoma, suspension), the AUC is 0.972 and the IC50 is over 2 µM.

As for SNB75 (glioma, adherent), the AUC amounted to 0.979 and the half-maximal inhibitory concentration (IC50) is over 2 µM.

In the case of SR (lymphoid neoplasm, suspension), the AUC was 0.974 and the IC50 was over 2 µM.

In the case of SW684 (fibrosarcoma, adherent), the AUC is 0.98 and the IC50 is over 2 µM.

Turning to TE-1 (oesophagus, adherent), the AUC was 0.974 and the IC50 was over 2 µM.

As for TE-5 (oesophagus, adherent), the AUC worked out at 0.984 and the IC50 was over 2 µM.

As for TE-8 (oesophagus, adherent), the AUC was determined as 0.984 and the 50% inhibitory concentration (IC50) is over 2 µM.
